Source: the supplement of paper PMC11125491
± gives the standard deviation of the averaged measurements. Growth of baker's yeast expressing single-residue variants of Pneumocystis jirovecii dihydrofolate reductase in 8.8 or 44 µM methotrexate (about 75% and 90% inhibition of the wild type). Selection coefficient per generation; 0 = like wild type, above 0 = less sensitive, below 0 = more sensitive or loss of function. No active / inactive call per row; the paper calls resistant above 0.220 (8.8 µM) or 0.243 (44 µM) together with a significance test. At 44 µM about 15% of codons end with one read or none, so the lowest values are floors (replicate rank correlation 0.74; 0.94 at 8.8 µM).

B1: UniProt A0EPZ9; numbered along this chain (parent)
chain: MDWQKSLTLIVALTLSRGIGLKNDLPWKLKSDMMFFSRVTSGLLVTRSTGQMNVVLMGRKTWESLPAHSRPLKNRINVVISRQEVLDLGGGAYHARSLDDALALLSQIYDSTSKIQLNRVFVIGGGELCKAAMEHSRLNRIIATVIHNEVDCDVFFPIDFRSSQSCLPWRKQDHSVLEAWVGSKVPQGKINENGFIYEFEMWIRDI

Variants of: B1
Assay: selection coefficient against synonymous wild-type codons (log2 per generation); higher = faster growth than wild type
Settings: with Saccharomyces cerevisiae carrying the variant on a plasmid
Experimental: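 Pooled growth of yeast carrying single-residue variants of P. jirovecii dihydrofolate reductase (own DFR1 gene intact), two passages at 30 °C, three cultures, sequenced before and after. Codons with under 15 starting reads are left out; codons of one change are averaged.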

## F156R
Methotrexate 8.8 µM
  selection coefficient against synonymous wild-type codons (log2): -0.406 ± 0.081
Methotrexate 44 µM
  selection coefficient against synonymous wild-type codons (log2): -0.271 ± 0.11

## F156S
Methotrexate 8.8 µM
  selection coefficient against synonymous wild-type codons (log2): 0.634 ± 0.047
Methotrexate 44 µM
  selection coefficient against synonymous wild-type codons (log2): 0.771 ± 0.044

## F156T
Methotrexate 8.8 µM
  selection coefficient against synonymous wild-type codons (log2): 0.557 ± 0.048
Methotrexate 44 µM
  selection coefficient against synonymous wild-type codons (log2): 0.646 ± 0.032

## F156V
Methotrexate 8.8 µM
  selection coefficient against synonymous wild-type codons (log2): 0.0981 ± 0.041
Methotrexate 44 µM
  selection coefficient against synonymous wild-type codons (log2): 0.108 ± 0.052

## F156W
Methotrexate 8.8 µM
  selection coefficient against synonymous wild-type codons (log2): 0.582 ± 0.038
Methotrexate 44 µM
  selection coefficient against synonymous wild-type codons (log2): 0.708 ± 0.026

## F156Y
Methotrexate 8.8 µM
  selection coefficient against synonymous wild-type codons (log2): 0.36 ± 0.059
Methotrexate 44 µM
  selection coefficient against synonymous wild-type codons (log2): 0.37 ± 0.026

## P157A
Methotrexate 8.8 µM
  selection coefficient against synonymous wild-type codons (log2): -0.377 ± 0.08
Methotrexate 44 µM
  selection coefficient against synonymous wild-type codons (log2): -0.27 ± 0.099

## P157C
Methotrexate 8.8 µM
  selection coefficient against synonymous wild-type codons (log2): -0.445 ± 0.19
Methotrexate 44 µM
  selection coefficient against synonymous wild-type codons (log2): -0.371 ± 0.07

## P157D
Methotrexate 8.8 µM
  selection coefficient against synonymous wild-type codons (log2): 0.0447 ± 0.021
Methotrexate 44 µM
  selection coefficient against synonymous wild-type codons (log2): -0.0102 ± 0.079

## P157E
Methotrexate 8.8 µM
  selection coefficient against synonymous wild-type codons (log2): -0.224 ± 0.06
Methotrexate 44 µM
  selection coefficient against synonymous wild-type codons (log2): -0.217 ± 0.21

## P157F
Methotrexate 8.8 µM
  selection coefficient against synonymous wild-type codons (log2): -0.601 ± 0.014
Methotrexate 44 µM
  selection coefficient against synonymous wild-type codons (log2): -0.232 ± 0.046

## P157G
Methotrexate 8.8 µM
  selection coefficient against synonymous wild-type codons (log2): -0.0398 ± 0.066
Methotrexate 44 µM
  selection coefficient against synonymous wild-type codons (log2): -0.0839 ± 0.077

## P157H
Methotrexate 8.8 µM
  selection coefficient against synonymous wild-type codons (log2): -0.265 ± 0.1
Methotrexate 44 µM
  selection coefficient against synonymous wild-type codons (log2): -0.144 ± 0.11

## P157I
Methotrexate 8.8 µM
  selection coefficient against synonymous wild-type codons (log2): -0.599 ± 0.046
Methotrexate 44 µM
  selection coefficient against synonymous wild-type codons (log2): -0.23 ± 0.031

## P157K
Methotrexate 8.8 µM
  selection coefficient against synonymous wild-type codons (log2): -0.195 ± 0.052
Methotrexate 44 µM
  selection coefficient against synonymous wild-type codons (log2): -0.15 ± 0.023

## P157L
Methotrexate 8.8 µM
  selection coefficient against synonymous wild-type codons (log2): -0.538 ± 0.11
Methotrexate 44 µM
  selection coefficient against synonymous wild-type codons (log2): -0.274 ± 0.11

## P157M
Methotrexate 8.8 µM
  selection coefficient against synonymous wild-type codons (log2): -0.569 ± 0.13
Methotrexate 44 µM
  selection coefficient against synonymous wild-type codons (log2): -0.393 ± 0.04

## P157N
Methotrexate 8.8 µM
  selection coefficient against synonymous wild-type codons (log2): -0.0368 ± 0.049
Methotrexate 44 µM
  selection coefficient against synonymous wild-type codons (log2): -0.0862 ± 0.13

## P157Q
Methotrexate 8.8 µM
  selection coefficient against synonymous wild-type codons (log2): -0.237 ± 0.056
Methotrexate 44 µM
  selection coefficient against synonymous wild-type codons (log2): -0.275 ± 0.071

## P157R
Methotrexate 8.8 µM
  selection coefficient against synonymous wild-type codons (log2): -0.282 ± 0.077
Methotrexate 44 µM
  selection coefficient against synonymous wild-type codons (log2): -0.296 ± 0.1

## P157S
Methotrexate 8.8 µM
  selection coefficient against synonymous wild-type codons (log2): -0.309 ± 0.11
Methotrexate 44 µM
  selection coefficient against synonymous wild-type codons (log2): -0.216 ± 0.13

## P157T
Methotrexate 8.8 µM
  selection coefficient against synonymous wild-type codons (log2): -0.391 ± 0.13
Methotrexate 44 µM
  selection coefficient against synonymous wild-type codons (log2): -0.286 ± 0.1

## P157V
Methotrexate 8.8 µM
  selection coefficient against synonymous wild-type codons (log2): -0.641 ± 0.16
Methotrexate 44 µM
  selection coefficient against synonymous wild-type codons (log2): -0.35 ± 0.094

## P157W
Methotrexate 8.8 µM
  selection coefficient against synonymous wild-type codons (log2): -0.563 ± 0.17
Methotrexate 44 µM
  selection coefficient against synonymous wild-type codons (log2): -0.46 ± 0.019

## P157Y
Methotrexate 8.8 µM
  selection coefficient against synonymous wild-type codons (log2): -0.53 ± 0.11
Methotrexate 44 µM
  selection coefficient against synonymous wild-type codons (log2): -0.356 ± 0.011

## I158A
Methotrexate 8.8 µM
  selection coefficient against synonymous wild-type codons (log2): 0.0723 ± 0.056
Methotrexate 44 µM
  selection coefficient against synonymous wild-type codons (log2): -0.0427 ± 0.094

## I158C
Methotrexate 8.8 µM
  selection coefficient against synonymous wild-type codons (log2): -0.0591 ± 0.04
Methotrexate 44 µM
  selection coefficient against synonymous wild-type codons (log2): -0.143 ± 0.07

## I158D
Methotrexate 8.8 µM
  selection coefficient against synonymous wild-type codons (log2): 0.0369 ± 0.035
Methotrexate 44 µM
  selection coefficient against synonymous wild-type codons (log2): -0.000802 ± 0.065

## I158E
Methotrexate 8.8 µM
  selection coefficient against synonymous wild-type codons (log2): 0.0553 ± 0.053
Methotrexate 44 µM
  selection coefficient against synonymous wild-type codons (log2): 0.0299 ± 0.045

## I158F
Methotrexate 8.8 µM
  selection coefficient against synonymous wild-type codons (log2): -0.00748 ± 0.073
Methotrexate 44 µM
  selection coefficient against synonymous wild-type codons (log2): -0.00147 ± 0.039

## I158G
Methotrexate 8.8 µM
  selection coefficient against synonymous wild-type codons (log2): 0.0746 ± 0.052
Methotrexate 44 µM
  selection coefficient against synonymous wild-type codons (log2): 0.0462 ± 0.027

## I158H
Methotrexate 8.8 µM
  selection coefficient against synonymous wild-type codons (log2): 0.0575 ± 0.054
Methotrexate 44 µM
  selection coefficient against synonymous wild-type codons (log2): 0.00873 ± 0.056

## I158K
Methotrexate 8.8 µM
  selection coefficient against synonymous wild-type codons (log2): 0.0907 ± 0.034
Methotrexate 44 µM
  selection coefficient against synonymous wild-type codons (log2): 0.046 ± 0.041

## I158L
Methotrexate 8.8 µM
  selection coefficient against synonymous wild-type codons (log2): 0.0166 ± 0.031
Methotrexate 44 µM
  selection coefficient against synonymous wild-type codons (log2): -0.0583 ± 0.1

## I158M
Methotrexate 8.8 µM
  selection coefficient against synonymous wild-type codons (log2): -0.00917 ± 0.053
Methotrexate 44 µM
  selection coefficient against synonymous wild-type codons (log2): -0.0505 ± 0.13

## I158N
Methotrexate 8.8 µM
  selection coefficient against synonymous wild-type codons (log2): 0.0501 ± 0.037
Methotrexate 44 µM
  selection coefficient against synonymous wild-type codons (log2): -0.0312 ± 0.054

## I158P
Methotrexate 8.8 µM
  selection coefficient against synonymous wild-type codons (log2): 0.345 ± 0.06
Methotrexate 44 µM
  selection coefficient against synonymous wild-type codons (log2): 0.27 ± 0.1

## I158Q
Methotrexate 8.8 µM
  selection coefficient against synonymous wild-type codons (log2): 0.067 ± 0.058
Methotrexate 44 µM
  selection coefficient against synonymous wild-type codons (log2): 0.00053 ± 0.048

## I158R
Methotrexate 8.8 µM
  selection coefficient against synonymous wild-type codons (log2): 0.043 ± 0.05
Methotrexate 44 µM
  selection coefficient against synonymous wild-type codons (log2): -0.0173 ± 0.095

## I158S
Methotrexate 8.8 µM
  selection coefficient against synonymous wild-type codons (log2): 0.0135 ± 0.056
Methotrexate 44 µM
  selection coefficient against synonymous wild-type codons (log2): -0.0781 ± 0.081

## I158T
Methotrexate 8.8 µM
  selection coefficient against synonymous wild-type codons (log2): 0.00976 ± 0.053
Methotrexate 44 µM
  selection coefficient against synonymous wild-type codons (log2): 0.0219 ± 0.077

## I158V
Methotrexate 8.8 µM
  selection coefficient against synonymous wild-type codons (log2): -0.00553 ± 0.048
Methotrexate 44 µM
  selection coefficient against synonymous wild-type codons (log2): -0.0877 ± 0.092

## I158W
Methotrexate 8.8 µM
  selection coefficient against synonymous wild-type codons (log2): 0.0462 ± 0.051
Methotrexate 44 µM
  selection coefficient against synonymous wild-type codons (log2): -0.118 ± 0.075

## I158Y
Methotrexate 8.8 µM
  selection coefficient against synonymous wild-type codons (log2): 0.0164 ± 0.026
Methotrexate 44 µM
  selection coefficient against synonymous wild-type codons (log2): -0.0246 ± 0.017

## D159A
Methotrexate 8.8 µM
  selection coefficient against synonymous wild-type codons (log2): -0.0605 ± 0.047
Methotrexate 44 µM
  selection coefficient against synonymous wild-type codons (log2): -0.142 ± 0.079

## D159C
Methotrexate 8.8 µM
  selection coefficient against synonymous wild-type codons (log2): -0.107 ± 0.1
Methotrexate 44 µM
  selection coefficient against synonymous wild-type codons (log2): -0.188 ± 0.058

## D159E
Methotrexate 8.8 µM
  selection coefficient against synonymous wild-type codons (log2): -0.067 ± 0.038
Methotrexate 44 µM
  selection coefficient against synonymous wild-type codons (log2): -0.0279 ± 0.056

## D159F
Methotrexate 8.8 µM
  selection coefficient against synonymous wild-type codons (log2): -0.115 ± 0.048
Methotrexate 44 µM
  selection coefficient against synonymous wild-type codons (log2): -0.171 ± 0.2

## D159G
Methotrexate 8.8 µM
  selection coefficient against synonymous wild-type codons (log2): -0.0103 ± 0.04
Methotrexate 44 µM
  selection coefficient against synonymous wild-type codons (log2): -0.119 ± 0.1

## D159H
Methotrexate 8.8 µM
  selection coefficient against synonymous wild-type codons (log2): -0.0522 ± 0.075
Methotrexate 44 µM
  selection coefficient against synonymous wild-type codons (log2): -0.0669 ± 0.15

## D159I
Methotrexate 8.8 µM
  selection coefficient against synonymous wild-type codons (log2): -0.0817 ± 0.044
Methotrexate 44 µM
  selection coefficient against synonymous wild-type codons (log2): -0.159 ± 0.015

## D159K
Methotrexate 8.8 µM
  selection coefficient against synonymous wild-type codons (log2): -0.00262 ± 0.044
Methotrexate 44 µM
  selection coefficient against synonymous wild-type codons (log2): -0.0656 ± 0.12

## D159L
Methotrexate 8.8 µM
  selection coefficient against synonymous wild-type codons (log2): -0.0263 ± 0.064
Methotrexate 44 µM
  selection coefficient against synonymous wild-type codons (log2): -0.0148 ± 0.23

## D159M
Methotrexate 8.8 µM
  selection coefficient against synonymous wild-type codons (log2): -0.0716 ± 0.099
Methotrexate 44 µM
  selection coefficient against synonymous wild-type codons (log2): -0.186 ± 0.054

## D159N
Methotrexate 8.8 µM
  selection coefficient against synonymous wild-type codons (log2): -0.0345 ± 0.13
Methotrexate 44 µM
  selection coefficient against synonymous wild-type codons (log2): -0.0755 ± 0.11

## D159P
Methotrexate 8.8 µM
  selection coefficient against synonymous wild-type codons (log2): -0.0174 ± 0.06
Methotrexate 44 µM
  selection coefficient against synonymous wild-type codons (log2): -0.0741 ± 0.13

## D159Q
Methotrexate 8.8 µM
  selection coefficient against synonymous wild-type codons (log2): 0.00557 ± 0.087
Methotrexate 44 µM
  selection coefficient against synonymous wild-type codons (log2): -0.0601 ± 0.12

## D159R
Methotrexate 8.8 µM
  selection coefficient against synonymous wild-type codons (log2): -0.0304 ± 0.049
Methotrexate 44 µM
  selection coefficient against synonymous wild-type codons (log2): -0.178 ± 0.14
